{"source": "paper PMC12136788", "binders": {"B1": {"name": "chr12:14501823:14501924:+|3pUTR|ENSG00000171681|unk|FALSE|unique (ssRNA)", "RNA": "GGGAGUUCUACAGUCCGACGAUCUUUUGUUGUUUGCUCUUUUGCUUUAAAUAUUCUCCAAAUUACCAUUUAUGCAACAUGGUUAGGGUUAAUACUGCAUGGUAUUCAUUUAUCUUGUUUCAUGAACUUUCCAGUACUGUACAACAACAGAGGAUUGAGCAUCA"}, "B2": {"name": "chr5:149977868:149977977:+|CDS|ENSG00000155850|unk|FALSE|unique (ssRNA)", "RNA": "GGGAGUUCUACAGUCCGACGAUCUAUUAAAAAGCUGCAGAAGAAUUGCCAGUGCAGUCCAGCCAAAGCCAAAAAUAUGAUUUUAGGUUUCCUUCCUGUUUUGCAGUGGCUCCCAAAAUACGACCUAAAGAAAAACAUUUUAGGCAACAGAGGAUUGAGCAUCA"}, "B3": {"name": "chr11:35810521:35810622:+|3pUTR|ENSG00000166326|unk|FALSE|bound_elsewhere (ssRNA)", "RNA": "GGGAGUUCUACAGUCCGACGAUCCCAGAAACCAUAAGACUCAGGCAGUUCUUGAUUCUGGAGGCCUGCCUGGUAAGAUAAGAUAGUAUAAUUUGGAACUGAGAACAUACCAGAAACAGCAGAACGAGGGCCAGAGCAGAAAAACAACAGAGGAUUGAGCAUCA"}, "B4": {"name": "ENSG00000136451:be:win_1301|CDS|ENSG00000136451|bound_else_gene|NA|bound_elsewhere_windowed (ssRNA)", "RNA": "GGGAGUUCUACAGUCCGACGAUCUUAACAUAACCAGCCCAAUGAACAUAGGGCAUCCUGUAACUAUAACCAGUCCAUUAUCCAUGACCUCUCCUUUAACACUCACUACCCCAGUCAACCUCCCCACCCCCGUCACUGCCCCAGCAACAGAGGAUUGAGCAUCA"}, "B5": {"name": "ENSG00000070961:be:win_6201|3pUTR|ENSG00000070961|bound_else_gene|NA|bound_elsewhere_windowed (ssRNA)", "RNA": "GGGAGUUCUACAGUCCGACGAUCAUCCCAAAUGUUUUUAAUCUUUGUAUAUUUUUUAAAAAUCCUUUUCUCCUCAUCAUUGCCUUUUUUGUGGUUGUAAAUAGACUUACUUGCACUUUGAAGAUGAGUUACUCCUUGUCAUCUCAACAGAGGAUUGAGCAUCA"}, "B6": {"name": "chr19:15272971:15273072:-|CDS|ENSG00000141867|msi1|total|mutant (ssRNA)", "RNA": "GGGAGUUCUACAGUCCGACGAUCGUCUGCGGAGAGCGGCCCUGGGACGAGAUUGAGAAAUCUGCCAGUAAUGGGGGAUGGACCCGAAACUUCCCAAAUGUCUACAACACAGGCCCAGGCCCAACCCCAGCCAGCCAACGCAGCCAACAGAGGAUUGAGCAUCA"}, "B7": {"name": "chr8:17299120:17299221:-|3pUTR|ENSG00000003987|unk|total|mutant (ssRNA)", "RNA": "GGGAGUUCUACAGUCCGACGAUCUCCUCAUUAUUUAAAAAUGCUAAACCUUGUAUCUCACUUUUUCUCUAACACUGAUUUAACCGCUAACGAGGCCGAAGCAACAUUCAUUCUCCUGGUCUUACAUAUGAAUUUAAGUAUCAGCAACAGAGGAUUGAGCAUCA"}, "B8": {"name": "chr19:1230895:1231275:-|CDS|ENSG00000099625|control|control|control (ssRNA)", "RNA": "GGGAGUUCUACAGUCCGACGAUCUCAGUAGAUGGAGGUGCUAGGGGUGGACCUGUGGGCCCUUGCCCCCCUUCGCCCCCCCCUAGGCGGCCCAGGGAGCGCUCUCCAGGCCCCGUGGACACGCGCUCGCCUGCCUCCAGCGGCCAACAGAGGAUUGAGCAUCA"}, "B9": {"name": "chrX:153695679:153695780:+|3pUTR|ENSG00000130821|msi1|total|mutant (ssRNA)", "RNA": "GGGAGUUCUACAGUCCGACGAUCGGCAGCAGAACCAAGGCAAAUAUUUCAGCUGGGCUAUACCCCUCUCCCCAUCCCUGUUACCGAAGCUCCGAGAGCCAGCCAGCAAUGGAACCUUCUGGUUCCUGCGCCAAUCGCCACCAGCAACAGAGGAUUGAGCAUCA"}, "B10": {"name": "ENSG00000136451:be:win_1151|CDS|ENSG00000136451|bound_else_gene|NA|bound_elsewhere_windowed (ssRNA)", "RNA": "GGGAGUUCUACAGUCCGACGAUCUGUGCCAAACCUCCACGGCUGCUACGACACCUGUGACUCUCACUACUCCAUUCAGUAUAACAUCCUCUGUGUCGUCUGGGACUAUGUCAAACCCAGUCACAGUGGCAGCUGCAAUGAGCACAACAGAGGAUUGAGCAUCA"}, "B11": {"name": "chr4:112276399:112276500:-|3pUTR|ENSG00000145365|unk|FALSE|unique (ssRNA)", "RNA": "GGGAGUUCUACAGUCCGACGAUCUUAUUCCCUGUGAUGCCCAGAGUAAUGGCCCAUCCAAAGAUGUCCAGAUGUCCAUGUGCUAGUCUCCAGAACUUGUAACUGUGUUGUUAUGUGGCAAAGGGGAAUGAAGGCUGCAGAUGGCAACAGAGGAUUGAGCAUCA"}, "B12": {"name": "chr17:1004907:1005008:-|3pUTR|ENSG00000159842|msi1|total|mutant (ssRNA)", "RNA": "GGGAGUUCUACAGUCCGACGAUCAAGAGGGGCCAGGCUUCCUGGAGGGUGACUGAUGUGGCCGAAGCAGGUGUCCAGGCAGGCCGGCUGCAGCCAGGAGCUCCCUGGCACCGCAGGACCUCGUGGUACUCUUGCCUCCGAUUUCAACAGAGGAUUGAGCAUCA"}, "B13": {"name": "ENSG00000136451:be:win_401|CDS|ENSG00000136451|bound_else_gene|NA|bound_elsewhere_windowed (ssRNA)", "RNA": "GGGAGUUCUACAGUCCGACGAUCGCAUCUUGUCAACAGUCACUACAUCUUCCUCGGGCACCAACCCCAGUAGCAGUGCCAGCACCACAGCUAUGCCAGUGACCCAGUCUGUCAAGAAACCCAGUAAGCCUGUCAAGAAGAACCCAACAGAGGAUUGAGCAUCA"}, "B14": {"name": "chr1:205620050:205620151:-|CDS|ENSG00000158711|unk|FALSE|unique (ssRNA)", "RNA": "GGGAGUUCUACAGUCCGACGAUCGCCAAUGGAACUUCCAGAGAAUUUGUCACUGGAGCCUAAAGACCAGGAUUCAGUCUUGCUAGAAAAGGACAAAGUAAAUAAUUCAUCAAGAUCCAAGAAACCCAAAGGGUUAGAACUGGCCAACAGAGGAUUGAGCAUCA"}, "B15": {"name": "ENSG00000123684:stop:overlap|stop_codon|ENSG00000123684|stop_codon|NA|stop_codon (ssRNA)", "RNA": "GGGAGUUCUACAGUCCGACGAUCCAUUUUUGUCAGGCUAUAUGUGGUACAACAUCAUUCAGUAUUUUUACCAUUGCCUGUUUUAGGAAUUGACGUGGACUUGUCAAGGUCACCGUAGGAGUUCAGACUUUCUUUCAUAAGUGUCAACAGAGGAUUGAGCAUCA"}, "B16": {"name": "chr12:121847077:121847190:-|CDS|ENSG00000158104|unk|FALSE|unique (ssRNA)", "RNA": "GGGAGUUCUACAGUCCGACGAUCAAAAACCUGCAGUUCCACCGCUUCUGGUCCGUGGAUGACACGCAGGUGCACACGGAAUAUAGCUCUCUGCGAUCCAUUGUGGUGGCCAACUAUGAAGAGUCCAUCAAGAUGCCCAUCAAUCAACAGAGGAUUGAGCAUCA"}, "B17": {"name": "chr11:61865769:61866452:+|3pUTR|ENSG00000134824|msi1|total|mutant (ssRNA)", "RNA": "GGGAGUUCUACAGUCCGACGAUCUGCAGCCUGGUCACCCGGCAUCACCCCCGCUUUGGUUCUUCAGAUGCUCUUGGGGUUCACCGGGGCAGGUCCCCGUCGGGCAGGGCCCCUGACCCUCCCGGCCUGGCUUCACUCUCCCUGCAACAGAGGAUUGAGCAUCA"}, "B18": {"name": "chr8:47773456:47773635:-|3pUTR|ENSG00000253729|msi1_unk|total|mutant (ssRNA)", "RNA": "GGGAGUUCUACAGUCCGACGAUCGUUUUUUCCUUUCAUUUUAUUCUCUUCCCGUUUUGACAUUUUAUGACCGAUUUGCUCUCCCGAAGGAAACGUCUUUAUUCCGGAGGGCAAAAAUUUUGGUCACCGCAUUCACUUUUGCUACAACAGAGGAUUGAGCAUCA"}, "B19": {"name": "chr14:102081487:102081564:-|3pUTR|ENSG00000080824|msi1_unk|FALSE|overlapping (ssRNA)", "RNA": "GGGAGUUCUACAGUCCGACGAUCGAAGAUAAGAUUUCUGUCUACUAAGUGAUGCUGUGAUACCUUAGGCACUAAAGCAGAGCUAGUAAUGCUUUUUGAGUUUCAUGUUGGUUUAUUUUCACAGAUUGGGGUAACGUGCACUGUCAACAGAGGAUUGAGCAUCA"}, "B20": {"name": "chr8:116854276:116854437:-|CDS|ENSG00000164754|unk|total|mutant (ssRNA)", "RNA": "GGGAGUUCUACAGUCCGACGAUCAGGAAGCUAAUUGUUGACAGUGUCAAAGAGUUGGACCGCAAGACAAUCCGAGCCCAACUCCGUGAUUAUUCAGAUAUUGUUACUACUUUGGAUCUGGCACCGCCCACCAAGAAAUUGAUGCAACAGAGGAUUGAGCAUCA"}, "B21": {"name": "chr7:106091418:106091523:-|3pUTR|ENSG00000008282|msi1|FALSE|unique (ssRNA)", "RNA": "GGGAGUUCUACAGUCCGACGAUCUUUACACCUUAAGCCUUAACAUGUAUCUUCAUUCAGAAAACAGUUAUAUUGUCAUACCAUAGUAGGAAGAAAAACCUUUAUUUGGAAUAUACACUACUGUAAGUUUGUACAGAUCAUAUACAACAGAGGAUUGAGCAUCA"}, "B22": {"name": "chr3:125012942:125013043:-|CDS|ENSG00000173706|msi1|FALSE|bound_elsewhere (ssRNA)", "RNA": "GGGAGUUCUACAGUCCGACGAUCGCCUCUUAUGACCACUCCUGGCACCCUGUCAAGCACAGCAUCUCUGGUCACUGGCCCUAUAGCCGUACAGACUACAGCUGGAAAACAGCUCUCGCUGACCCAUCCUGAAAUACUAGUUCCCAACAGAGGAUUGAGCAUCA"}}, "note": "Some of the results follow."}
{"target": "T1, UNK ZnF1-6 (called full-length) (human, UniProt Q9C0B0 30-357)", "T1 sequence": "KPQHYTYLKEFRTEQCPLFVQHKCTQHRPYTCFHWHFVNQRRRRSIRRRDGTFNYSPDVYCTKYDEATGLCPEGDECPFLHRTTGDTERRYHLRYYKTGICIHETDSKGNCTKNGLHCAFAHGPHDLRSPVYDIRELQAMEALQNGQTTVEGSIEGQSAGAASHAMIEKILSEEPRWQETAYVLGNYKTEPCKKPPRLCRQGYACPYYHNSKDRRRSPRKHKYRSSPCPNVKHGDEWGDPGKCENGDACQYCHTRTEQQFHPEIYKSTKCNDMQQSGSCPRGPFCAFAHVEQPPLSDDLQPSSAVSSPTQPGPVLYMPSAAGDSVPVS", "assay": "nsRBNS (natural sequence RNA bind-n-seq); RBNS binding buffer (assumed for nsRBNS): 25 mM Tris pH 7.5, 150 mM KCl, 3 mM MgCl2, 0.01% Triton X-100, 500 ug/ml BSA, 20 U/ml SUPERase-In, 4 C; UNK is unkempt and MSI1 is Musashi-1; names of the RNAs are library labels; protein concentration not given here; high values mean tight binding", "units": {"binding signal": "enrichment R"}}
{"binder": "B1", "binding signal": 0.457}
{"binder": "B2", "binding signal": 0.277}
{"binder": "B3", "binding signal": 1.77}
{"binder": "B4", "binding signal": 1.34}
{"binder": "B5", "binding signal": 0.982}
{"binder": "B6", "binding signal": 0.95}
{"binder": "B7", "binding signal": 0.98}
{"binder": "B8", "binding signal": 0.568}
{"binder": "B9", "binding signal": 0.787}
{"binder": "B10", "binding signal": 0.604}
{"binder": "B11", "binding signal": 0.581}
{"binder": "B12", "binding signal": 0.871}
{"binder": "B13", "binding signal": 0.705}
{"binder": "B14", "binding signal": 0.852}
{"binder": "B15", "binding signal": 0.562}
{"binder": "B16", "binding signal": 0.425}
{"binder": "B17", "binding signal": 0.871}
{"binder": "B18", "binding signal": 0.785}
{"binder": "B19", "binding signal": 0.375}
{"binder": "B20", "binding signal": 0.516}
{"binder": "B21", "binding signal": 0.408}
{"binder": "B22", "binding signal": 0.783}
